Experimental data reported in PubChem BioAssay (NCATS).
Inconclusive results, whose numbers are uncertain, are shown with a selection of clear calls. Where the call is inconclusive, the potency comes from a doubtful curve fit. Active and inactive are the calls of the source. Calls follow the shape of the dose curve; as a rule, active = well fitted inhibition curve with a large enough effect; inconclusive = small, poorly fitted or top-dose-only effect; inactive = flat fitted curve, though single readings scatter.

What follows are molecules tested on HEK293 (assay: Cytotoxic Profiling of Annotated Libraries Using Quantitative High-Throughput Screening (AID 1296008; also: nearly all actives have a fitted effect of over 60% in size)). Settings: Five cell lines viability, CellTiter-Glo ATP luminescence, 48-72 h; max response: stronger effect = lower value.
Procedure, shortened: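 Cells exposed to compounds for 48 or 72 hr at 37 degrees Celsius. Viability read as ATP-coupled luminescence with CellTiter-Glo after 10 min at room temperature.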
% is scaled to controls: 0 for no effect and ±100 for the full control effect; potency is read from the fitted curve at half-maximal effect; tags tell the direction and shape of the fitted curve.

Compound | Potency | max response
CN1C(=O)[C@@H](NC(=O)c2cc3ccccc3[nH]2)N=C(c2ccccc2)c2ccccc21 | active: 11.9 µM | –
COC1CC(OC2CCC3(C)C(=CCC4C3CCC3(C)C(C(C)OC5OC(COC6OC(CO)C(O)C(O)C6O)C(O)C(O)C5O)CCC43O)C2)OC(C)C1OC1OC(C)C(O)C(OC)C1O (stereo not given) | – | inactive: -6.75%
CC1COC2(c3ccccc3Cl)c3cc(Cl)ccc3NC(=O)CN12 (stereo not given) | inconclusive: 21.1 µM [inhibitor, single point] | –
COc1ccc(CCNCc2ccc(OC)c3ccccc23)cc1 | inconclusive: 23.1 µM [inhibitor, single point] | –
C[C@@H]1CCC2[C@@H](C)C(=O)OC3O[C@@]4(C)CCC1[C@]32OO4 (stereo not given in full) | inconclusive: 1.46 µM [inhibitor, full curve, poor fit] | –
CCCOC(=O)c1cncn1C(C)c1ccccc1 (stereo not given) | – | inactive: 1.16%
Cc1c(Cl)c(OCC(=O)N2CCN(C)CC2)nc2sc(C(=O)NC3CC3)c(N)c12 | – | inactive: -7.33%
C[C@H]1C(=O)O[C@@H]2CCN3CC=C(COC(=O)[C@](C)(O)[C@]1(C)O)[C@H]23 | inconclusive: 26.6 µM [inhibitor, single point] | –
CC[C@@H](C)[C@H]1C(=O)O[C@H](C(C)C)C(=O)N(C)[C@@H]([C@@H](C)CC)C(=O)O[C@H](C(C)C)C(=O)N(C)[C@@H]([C@H](C)CC)C(=O)O[C@H](C(C)C)C(=O)N1C | inconclusive: 9.68 µM [inhibitor, single point] | –
CCCN1CCO[C@@H]2c3cc(O)ccc3OC[C@@H]21 | inconclusive: 37.2 µM [inhibitor, single point] | –
O=C1NCN(c2ccccc2)C12CCN(CC1COc3ccccc3O1)CC2 (stereo not given) | inconclusive: 8.41 µM [inhibitor, partial curve] | –
ClC1=C(Cl)[C@]2(Cl)[C@@H]3[C@@H]4C[C@@H]([C@H]5O[C@@H]45)[C@@H]3[C@@]1(Cl)C2(Cl)Cl | inconclusive: 43.3 µM [inhibitor, single point] | –
CN(C)[C@@H]1C(=O)C(C(N)=O)=C(O)[C@@]2(O)C(=O)C3=C(O)c4c(O)cccc4[C@@](C)(O)[C@H]3C[C@@H]12 | inconclusive: 37.2 µM [inhibitor, single point] | –
CCN1C[C@]2(COC)CC[C@H](O)[C@@]34C5C[C@@H]6[C@@H](OC)C[C@@](OC(C)=O)(C5[C@@H]6OC(C)=O)[C@H]([C@H](OC)C23)[C@@H]14 (stereo not given in full) | – | inactive: 3.98%
Nc1ccc(Cl)cc1 | – | inactive: 4.83%
C=C1CC[C@H]2[C@@H](/C=C(\C)C(=O)[C@@]3(OC(C)=O)C[C@H](C)[C@H](OC(=O)c4ccccc4)[C@@H]3[C@H]1OC(C)=O)C2(C)C | inconclusive: 14.2 µM [inhibitor, single point] | –
CN(Cc1cccc(-c2ccncc2)c1)C(=O)Oc1ccc(-c2ccc(C(N)=O)cc2)cc1 | inconclusive: 5.8 µM [inhibitor, full curve] | –
CC(=O)NCCCOc1ccc(C(=O)N2CCC(N3C(=O)CCc4ccccc43)CC2)cc1 | inconclusive: 29.1 µM [inhibitor, single point] | –
Cc1ccc(S(=O)(=O)N[C@@H](CCCCN)C(=O)CCl)cc1 | inconclusive: 33.5 µM [inhibitor, single point] | –
C[C@]12Cc3cn[nH]c3C[C@@H]1CC[C@@H]1[C@@H]2CC[C@@]2(C)[C@H]1CC[C@]2(C)O | inconclusive: 33.5 µM [inhibitor, single point] | –
C=C1C[C@@H]2[C@H](CC[C@]3(C)C(=O)CC[C@@H]23)[C@@]2(C)C=CC(=O)C=C12 | inconclusive: 23.7 µM [inhibitor, single point] | –
CCCN(CCC)CCc1c[nH]c2ccccc12 | inconclusive: 67.9 µM [inhibitor, single point] | –
CC(C)=CCC[C@]1(C)C=Cc2c(O)c3c(c(CC=C(C)C)c2O1)O[C@]12C(=C[C@@H]4CC1C(C)(C)O[C@@]2(C/C=C(/C)C(=O)O)C4=O)C3=O | active: 0.731 µM | –
CNC(C)Cc1ccc2c(c1)OCO2 (stereo not given) | – | inactive: -3.37%
CC(=O)[C@H]1CC[C@H]2[C@@H]3CC[C@H]4C[C@H](O)CC[C@]4(C)[C@H]3C(=O)C[C@]12C | inconclusive: 29.9 µM [inhibitor, single point] | –
